Test results reported in article PMC4336329 (PLoS ONE, 2015).
The campaign covered roughly 310,000 compounds. About 2,200 (0.71%) showed an effect of 50% or more. Effects have a minus sign here. The list shows a part of the results.

Target: human ether-à-go-go-related gene (hERG) potassium channel (human, UniProt Q12809)
Assay: primary screen, population patch clamp on CHO cells stably expressing hERG

human ether-à-go-go-related gene (hERG) potassium channel, sequence (Q12809 whole entry, looked up): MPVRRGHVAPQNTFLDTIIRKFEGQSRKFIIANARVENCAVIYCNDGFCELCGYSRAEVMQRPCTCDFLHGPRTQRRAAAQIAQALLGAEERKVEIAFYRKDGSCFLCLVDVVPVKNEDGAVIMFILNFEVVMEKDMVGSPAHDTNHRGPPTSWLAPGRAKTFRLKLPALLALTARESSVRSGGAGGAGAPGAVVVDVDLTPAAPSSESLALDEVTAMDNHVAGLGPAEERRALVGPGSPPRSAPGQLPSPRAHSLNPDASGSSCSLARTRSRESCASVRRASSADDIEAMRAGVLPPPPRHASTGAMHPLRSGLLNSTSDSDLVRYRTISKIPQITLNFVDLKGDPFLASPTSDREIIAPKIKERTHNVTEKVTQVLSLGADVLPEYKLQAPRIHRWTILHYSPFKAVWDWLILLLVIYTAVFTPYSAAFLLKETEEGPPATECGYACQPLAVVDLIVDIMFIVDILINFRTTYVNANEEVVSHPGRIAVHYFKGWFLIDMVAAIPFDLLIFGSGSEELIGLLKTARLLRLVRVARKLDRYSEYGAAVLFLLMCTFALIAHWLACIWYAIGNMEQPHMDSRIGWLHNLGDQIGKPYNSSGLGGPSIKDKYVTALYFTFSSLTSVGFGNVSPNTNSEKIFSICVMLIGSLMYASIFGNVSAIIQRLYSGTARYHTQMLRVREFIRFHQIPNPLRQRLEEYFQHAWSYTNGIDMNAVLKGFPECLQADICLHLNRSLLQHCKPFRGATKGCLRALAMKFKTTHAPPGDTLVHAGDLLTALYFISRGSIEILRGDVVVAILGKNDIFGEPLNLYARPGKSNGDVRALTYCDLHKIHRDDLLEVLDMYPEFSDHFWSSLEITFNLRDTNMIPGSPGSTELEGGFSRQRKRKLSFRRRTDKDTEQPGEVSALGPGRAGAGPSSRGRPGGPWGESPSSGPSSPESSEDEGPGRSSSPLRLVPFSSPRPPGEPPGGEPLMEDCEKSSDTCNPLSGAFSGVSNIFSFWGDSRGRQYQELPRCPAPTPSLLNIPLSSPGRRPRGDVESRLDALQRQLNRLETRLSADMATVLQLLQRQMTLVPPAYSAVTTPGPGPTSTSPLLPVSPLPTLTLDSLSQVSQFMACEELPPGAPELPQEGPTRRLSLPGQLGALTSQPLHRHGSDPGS

| SMILES | hERG current change (%, negative = inhibition) at 1uM [%] |
| --- | --- |
| CCCN1CCC(=O)N([C@H](CSc2ccc(OC)cc2)CC(C)C)CC1 | -42.3 |
| O=C1C2ON(c3ccccc3)C(c3cccnc3)C2C(=O)N1c1ccc(Cl)c(Cl)c1 (stereo not shown) | 16.6 |
| Cc1ccc(-c2nc(Nc3ccccc3)n[nH]2)cc1 | 11.8 |
| Cc1ccc(CC(C(=O)O)C(C)C(=O)Nc2ccc(F)cc2)cc1 (stereo not shown) | 4.96 |
| Cc1ccccc1OCCCC(=O)Nc1nccs1 | 15.9 |
| O=C(CSc1nnnn1-c1ccccc1F)NNC(=O)c1ccco1 | 17.3 |
| Cc1cc(NC(=O)CSc2nnc(-c3ccc4c(c3)OCCO4)o2)no1 | 12.6 |
| O=C(N/N=C/c1ccco1)c1ccc(C(=O)N/N=C/c2ccco2)o1 | 12.5 |
| CCOc1ccccc1NC(=O)COc1cccc(-n2cnnn2)c1 | -4.1 |
| COc1ccc(NC(=S)Nc2ccc(C)c(Cl)c2)cc1OC | 7.68 |
| NC1=NC(=O)/C(=C/c2ccc(Br)cc2)S1 | 17.5 |
| COc1cccc(C(=O)N/N=C2/SCC(=O)N2CCc2ccc(OC)c(OC)c2)c1 | 8.81 |
| O=C(O)c1ccc(NS(=O)(=O)c2cccc3cccnc23)cc1 | 0.363 |
| Cc1ccsc1C(=O)NNC(=O)Nc1ccc(Cl)c(Cl)c1 | 6.98 |
| COc1ccc(-c2cc(C(=O)Nc3ccc(Cl)cc3Cl)c3ccccc3n2)cc1OC | 12.8 |
| O=C(CNS(=O)(=O)c1ccc(Cl)c(C(F)(F)F)c1)NC1CCCCC1 | 8.07 |
| COCCNC(=O)CSc1nc2cc3c(cc2c(=O)n1CCCC(=O)NCCc1ccc(OC)c(OC)c1)OCO3 | 17.9 |
| O=C(NCc1cccnc1)c1ccccc1-c1ccccc1 | 5.9 |
| C/C(=N\NC(N)=S)C1(C)CCCCC1 | 17.5 |
| CC(=O)c1sc2nc(-c3ccco3)ccc2c1N | 6.17 |
| COc1cccc2cc(C(=O)NCCc3ccccc3)oc12 | -9.44 |
| Cc1cccc(N(C(=O)c2snc(C(N)=O)c2N)C(C(=O)NCC2CCCO2)c2ccc(N(C)C)cc2)c1C (stereo not shown) | 14.5 |
| COc1ccc(-n2c(COc3ccc(C)cc3)nnc2SCC(=O)O)cc1 | 13.2 |
| COc1ccc(C2/C(=C(\O)c3ccc4c(c3)CC(C)O4)C(=O)C(=O)N2Cc2cccnc2)c(OC)c1 (stereo not shown) | 12.3 |
| Cc1ccc(S(=O)(=O)n2nnc3ccccc32)c(C)c1C | 14.7 |
| Cc1sc2nc(CN3CCN(S(=O)(=O)c4cccc5nonc45)CC3)[nH]c(=O)c2c1C | 10.4 |
| CCCn1c(N)c(C(=O)NS(=O)(=O)c2ccc(C)cc2)c(=O)n(C)c1=O | 5.76 |
| O=C(O)CC1(CC(=O)Nc2ccc(C(F)(F)F)cc2)CCCC1 | 15.6 |

| SMILES | hERG current change (%, negative = inhibition) at 1uM [%] |
| --- | --- |
| C/C(=N\NC(=O)Cc1ccccc1)c1ccc(Cl)s1 | 11.2 |
| Br.CO[C@H]1CC=C2CCN3CCC4=C(CC(=O)OC4)[C@]23C1 | 17 |
| CCN1CC=C2C(C#N)=C(N)C(C#N)(C#N)C(CCc3ccccc3)C2C1 (stereo not shown) | -15.6 |
| COc1ccc(N2CC(C(=O)OCC(=O)Nc3ccccc3C)CC2=O)cc1 (stereo not shown) | 17.1 |
| CCOC(=O)c1cnc2c(C)cc(C)cc2c1NCCCN1CCOCC1 | -21.1 |
| CC(=O)Nc1ccc(S(=O)(=O)N2CCN=C2C)cc1 | 8.7 |
| CC(C)NC(=O)c1ccc2c(=O)n(C3CCCC3)c(=S)[nH]c2c1 | -6.4 |
| COc1ccccc1NC(=O)c1ccc(-n2ccnc2)c([N+](=O)[O-])c1 | 15.9 |
| C/C=C/c1ccc(OCC(=O)N(CCOC)c2c(N)n(CCCC)c(=O)[nH]c2=O)c(OC)c1 | 12.2 |
| COc1ccc(Cc2nnc(N/N=C/c3ccc(O)cc3O)[nH]c2=O)cc1OC | 2.64 |
| Cc1nc2ccc(S(=O)(=O)NCC(=O)N3CCN(c4ccccc4)CC3)cc2s1 | 4.16 |
| COc1ccc(S(=O)(=O)N2CCc3ccccc32)cc1[N+](=O)[O-] | -2.47 |
| CCOc1ccc(C(=O)O)cc1OC | 12.1 |
| C/C(=N/Nc1nc(C)c(C)s1)c1cccc([N+](=O)[O-])c1 | 11.6 |
| Cc1ccccc1-n1c(C)nnc1SCc1cc(=O)oc2ccc3ccccc3c12 | -4.96 |
| O=C1CCCC2=C1C(c1ccncc1)n1c(nc3ccccc31)N2 (stereo not shown) | 2.23 |
| Cc1ccc(NC(=O)C2CCN(c3ncnc4sc(C)c(C)c34)CC2)cc1S(=O)(=O)N(C)C | -1.6 |
| CC(C)OP(=O)(c1ccc(N(C)C)cc1)C(O)c1ccccc1F (stereo not shown) | -3.1 |
| COc1ccc2nc(SCC(=O)Nc3cc(C)on3)c(C#N)cc2c1 | 17.5 |
| Cc1cccc(NC(=O)CN2C(=O)/C(=C3\SC(=S)N(CC4CCCO4)C3=O)c3ccccc32)c1 (stereo not shown) | 17.1 |
| CCCCCCc1ccc(N2C[C@H](Cc3ccccc3)[C@@H](CC(=O)NCc3ccc(OC)cc3)C2=O)cc1 | 4.61 |
| Cc1occc1C(=O)NCc1nc(-c2ccccc2)no1 | 15.3 |
| CC(C)(C)C(=O)Nc1cc2c3c(c1)CC(=O)N3CCC2 | 14.4 |
| Cc1ccccc1N1C(S)=C(C#N)C(=O)NC12CCCCC2 | 10.7 |
| Cc1nn(Cc2c(F)c(F)c(F)c(F)c2F)c(C)c1NC(=O)c1c(-c2ccccc2)nn(-c2ccccc2)c1C | 2.12 |
| O=C1N/C(=N/N=C/c2ccc(F)cc2)SC1c1ccccc1 (stereo not shown) | 12.9 |
| O=C1OC(N2C(=O)CC[C@H]2C(=O)Nc2ccc(Br)cc2F)c2ccccc21 (stereo partly shown) | 11 |
